What all share (assay): Primary Screen for Target Class Profiling of Small Molecule Inhibitors of Methyltransferases
The target of assay [1] is Glycine N-methyltransferase (Homo sapiens) (UniProt Q14749). As to conditions: purified enzyme, MTase-Glo SAH luminescence; measured here: GNMT inhibition; at 40 µM; stronger effect = lower value. From the text: (§1) PI: Matthew D. Hall Ph.D. and Quinlin M. Hanson Ph.D.
(§2) National Center for Advancing Translational Sciences (NCATS)
(§3) National Institute of Health (NIH), Rockville, MD
(§4) Target class profiling (TCP) is a chemical biology approach amenable to investigating understudied biological targets. TCP is achieved by developing a generalizable assay platform and applying it to screen a curated set of compound libraries against representative members of a target class. Small molecule methyltransferases (SMMTase) are a subclass of methyltransferase that act on metabolites to modulate signaling pathways, metabolize xenobiotics, or balance the available methyl pool. We screened four curated libraries totaling 27,574 unique compounds against the SMMTases nicotinamide N-methyltransferase (NNMT), phenylethanolamine N-methyltransferase (PNMT), histamine N-methyltransferase (HNMT), glycine N-methyltransferase (GNMT), catechol O-methyltransferase (COMT), and guanidinoacetate N-methyltransferase (GAMT). The data generated by this TCP can be leveraged for informed tool molecule development. For example, in the associated publication we identified a chemotype of HNMT-selective inhibitors. Additionally, we identified a putative SMMTase-selective inhibitor with potential as a tool molecule for studying broader methyltransferase biology.
(§5) High-through put screening assays were developed at the National Center for Advancing Translational Science (NCATS) for the enzymes NNMT, PNMT, HNMT, GNMT, COMT, and GAMT. Enzymatic activity was measured as a function of SAM cofactor conversion using the MTase Glo kit (Promega) for all enzymes. All assays were performed in 1536-well format with substrates and SAM concentrations at KM values. Enzyme concentration and assay timing were optimized for 10-20% SAM conversion. Initial screening of 27,574 compounds was done as single-point assays using the highest compound concentration (40 uM). […] These compounds were replated in 11-point dose response and assayed against NNMT, PNMT, HNMT, GNMT, COMT, GAMT, and a counter-assay. The IC50 and efficacy (maximal response) values were determined for each dose-response curve. These values are also accounted for in the area under the curve (AUC) values.
(§6) PROTOCOL TABLE (as described by Inglese J, Shamu CE and Guy RK. 2007)
(§7) SEQUENCE No. (e.g., 1, 2, 3, etc.); […] (e.g., Cells, Incubation, Reagent, etc.); VALUE; DESCRIPTION.
(§8) 1; Reagent; 2 uL; SMMTase Enzyme (2x) in reaction buffer, columns 1- 48.
(§9) 2; Reagent; 1 uL; SAM (4x) in reaction buffer, columns 1-48.
(§10) 3; Controls; 23 nL; DMSO in column 4; sinefungin in DMSO (0 uM - 40 uM) in 7-point 1:2 dilution series (n = 2) in column 2.
(§11) 4; Compounds; 23 nL; Columns 5-48.
(§12) 5; Reagent; 1 uL; Substrate (4x) in reaction buffer, columns 2-48.
(§13) 6; Time; 20-30 min; Incubation.
(§14) 7; Reagent; 1 uL; MTase-Glo reagent (5X), columns 1-48.
(§15) 8; Time; 30 min; Incubation.
(§16) 9; Reagent; 5 uL; MTase-Glo Detection reagent, columns 1-48.
(§17) 10; Time; 30 min; Incubation, luminescence evolution.
(§18) 11; Detection; Luminescence; ViewLux uHTS Microplate Imager (PerkinElmer).
(§19) NOTES (numbers refer to Sequence numbers above)
(§20) 1, 2, 5. White Medium Binding Greiner 1536-well plates (Cat #789175-F, Greiner Bio-One, Monroe, NC); Reaction buffer: 50 mM Tris, pH 8.0, 3 mM MgCl2, 1 mM EDTA, 50 mM NaCl, 1 mM DTT, and 0.1 mg/mL BSA. Evaporation was prevented by covering assay plates with metal lids containing holes to allow gas diffusion.
(§21) 1. Six SMMTase were profiled: HNMT, GNMT, PNMT, COMT, NNMT, GAMT
(§22) 5. The corresponding substrate was used for each enzyme: HNMT - 5.3 uM Histamine; GNMT - >500 uM Glycine; PNMT - 16.2 uM Norephinephrine; COMT - 13.7 uM Norephinephrine; NNMT - 3.8 uM Nicotinamide; GAMT - 2.5 uM Guanidinoacetate.6, 8, 10. Room temperature
(§23) 6. Final reaction conditions: 10 nM COMT, 5 uM SAM, 15 uM norepinephrine, 50 mM Tris, pH 8.0, 3 mM MgCl2, 1 mM EDTA, 50 mM NaCl, 1 mM DTT, and 0.1 mg/mL BSA; refer to tables 2 and S1 for specific timing.
8. […]

Assay [2] concerns the target Guanidinoacetate N-methyltransferase (Homo sapiens) (UniProt Q14353). As to conditions: purified enzyme, MTase-Glo SAH luminescence; measured here: GAMT inhibition; at 40 µM; stronger effect = lower value.
Excerpt: as §1, §2, §3, §4, §5, §6, §7, §8, §9, §10, §11, §12, §13, §14, §15, §16, §17, §18, §19, §20, §21, §22, §23
8. […]

In assay [3] the target is Histamine N-methyltransferase (Homo sapiens) (UniProt P50135). As to conditions: purified enzyme, MTase-Glo SAH luminescence; measured here: HNMT inhibition; at 40 µM; stronger effect = lower value.
Excerpt: as §1, §2, §3, §4, §5, §6, §7, §8, §9, §10, §11, §12, §13, §14, §15, §16, §17, §18, §19, §20, §21, §22, §23
8. […]

Assay [4] concerns the target Nicotinamide N-methyltransferase (Homo sapiens) (UniProt P40261). As to conditions: purified enzyme, MTase-Glo SAH luminescence; measured here: NNMT inhibition; at 40 µM; stronger effect = lower value.
Excerpt: as §1, §2, §3, §4, §5, §6, §7, §8, §9, §10, §11, §12, §13, §14, §15, §16, §17, §18, §19, §20, §21, §22, §23
8. […]

The target in assay [5] is Phenylethanolamine N-methyltransferase (Homo sapiens) (UniProt P11086). Conditions: purified enzyme, MTase-Glo SAH luminescence; measured here: PNMT inhibition; at 40 µM; stronger effect = lower value.
Excerpt: as §1, §2, §3, §4, §5, §6, §7, §8, §9, §10, §11, §12, §13, §14, §15, §16, §17, §18, §19, §20, §21, §22, §23
8. […]

The list shows a part of the results. These are further read-outs of the screen, such as a control signal, another cell line or another target. No call is given for them.
% is set by controls: 0 for no effect and ±100 for the full control effect.

Consider `COc1cc(C2Oc3c(OC)cc(CCCO[C@@H]4O[C@H](CO)[C@@H](O)[C@H](O)[C@H]4O)cc3C2CO)ccc1O` (stereo partly drawn), for which the activity change, negative = inhibition in assay [1] was -1.27%; in assay [2] it was -7.62%; in assay [3], 6.62%; in assay [4], -17.3%; in assay [5] it was 0.45%.
The matching figures for `CN1C(=O)c2cc(C(=O)NC3CCCCC3)nn2CC1(C)C(=O)NCc1ccccc1` (stereo not drawn): -4.69%, -13.5%, -1.28%, -5.74% and -6.63%.
The matching figures for `O=C1C(c2c(O)[nH]c3ccccc23)=Nc2ccccc21`: 7.77%, 5.3%, 6.81%, -4.62% and 5.63%.
On the same counts, the results for `Cc1ccccc1-c1[nH]nc2ncc(-c3c(C)noc3C)nc12` are -32.7%, -29%, -36.8%, -51.8% and -0.278%.
For `CC(C)N(CCCCOCC(=O)O)c1cnc(-c2ccccc2)c(-c2ccccc2)n1`, the results for the activity change, negative = inhibition in assay [2], in assay [4] and in assay [5] were 11.1%, -16.7% and 4.13%, respectively.
Take `Cc1cccc(N2CCN(C(=O)CCc3nnc4n(Cc5ccccc5)c(=O)c5ccccc5n34)CC2C)c1` (stereo not drawn): the activity change, negative = inhibition in assay [1] was -0.357%; in assay [2], 0%; in assay [3], 1.24%; in assay [4] it was -3.72%; in assay [5] it was -0.641%.
For the compound `Cc1cc(C(=O)N2CCC3(CC2)CC(O)CCO3)c(C)o1` (stereo not drawn), the activity change, negative = inhibition in assay [1] is -7.45%; in assay [2] it was -3.29%; in assay [3] it was -1.08%; in assay [4], -5.66%; in assay [5] it was 8.63%.
On to `CNC(=O)c1cc(Oc2ccc(NC(=O)c3cccc(C(F)(F)F)c3)cc2)ccn1`, for which the activity change, negative = inhibition in assay [1] is -1.09%; in assay [2] it was 8.73%; in assay [3] it was 11.8%; in assay [4], -9.44%; in assay [5], 0.421%.
The matching figures for `CS(=O)(=O)c1ccc(C(=O)Nc2ccc(Cl)c(-c3ccccn3)c2)c(Cl)c1`: -0.895%, -2.5%, -3.73%, -23.4% and -12.4%.
The matching figures for `Cc1nc([C@H]2CCNC[C@H]2NC(=O)C2CC2)n[nH]1`: -0.795%, -2.97%, 0.338%, -8.26% and -2.69%.
As for `CC(=O)Nc1c2n(c3ccccc13)CC(C)(C(=O)NC1CCCCC1)N(Cc1ccccc1F)C2=O` (stereo not drawn), the activity change, negative = inhibition in assay [1] is -2.92%; in assay [2], -1.39%; in assay [3], 0.764%; in assay [4] it was -12.5%; in assay [5] it was 0.04%.
The matching figures for `COC(=O)c1ncn2c1C(=O)N(c1ccc3c(c1)OCCO3)C(C)(C(=O)NCCCOC(C)C)C2` (stereo not drawn): 3.28%, 2.36%, 13.5%, 8.21% and 11.2%.
The matching figures for `C=CCn1cc(CN2CCOC(Cc3cccc4ccccc34)C2)c(C)n1` (stereo not drawn): 0.226%, 1.57%, 0.928%, -6.98% and -0.356%.
With `O=C1N[C@@H](Cc2cccs2)C(=O)N2CC[C@H](NS(=O)(=O)c3cccs3)C[C@@H]12`, the activity change, negative = inhibition is -1.07% in assay [1]; 0.9% in assay [2]; 1.4% in assay [3]; -2.63% in assay [4]; 3.02% in assay [5].
The matching figures for `CN1CCN(S(=O)(=O)c2ccc(-c3cnc(N)c(C(=O)Nc4cccnc4)n3)cc2)CC1`: -5.77%, -7.97%, -4.47%, -17.4% and -16.5%.
